Assay results published in paper PMC4336329 (PLoS ONE, 2015).
Out of some 310,000 compounds screened, about 2,200 (0.71%) showed an effect of 50% or more. The effect is printed as a negative number. This is one part of the list.

What follows are molecules tested against human ether-à-go-go-related gene (hERG) potassium channel (human, UniProt Q12809) (assay: primary screen, population patch clamp on CHO cells stably expressing hERG).
Chain of human ether-à-go-go-related gene (hERG) potassium channel (Q12809 whole entry, looked up): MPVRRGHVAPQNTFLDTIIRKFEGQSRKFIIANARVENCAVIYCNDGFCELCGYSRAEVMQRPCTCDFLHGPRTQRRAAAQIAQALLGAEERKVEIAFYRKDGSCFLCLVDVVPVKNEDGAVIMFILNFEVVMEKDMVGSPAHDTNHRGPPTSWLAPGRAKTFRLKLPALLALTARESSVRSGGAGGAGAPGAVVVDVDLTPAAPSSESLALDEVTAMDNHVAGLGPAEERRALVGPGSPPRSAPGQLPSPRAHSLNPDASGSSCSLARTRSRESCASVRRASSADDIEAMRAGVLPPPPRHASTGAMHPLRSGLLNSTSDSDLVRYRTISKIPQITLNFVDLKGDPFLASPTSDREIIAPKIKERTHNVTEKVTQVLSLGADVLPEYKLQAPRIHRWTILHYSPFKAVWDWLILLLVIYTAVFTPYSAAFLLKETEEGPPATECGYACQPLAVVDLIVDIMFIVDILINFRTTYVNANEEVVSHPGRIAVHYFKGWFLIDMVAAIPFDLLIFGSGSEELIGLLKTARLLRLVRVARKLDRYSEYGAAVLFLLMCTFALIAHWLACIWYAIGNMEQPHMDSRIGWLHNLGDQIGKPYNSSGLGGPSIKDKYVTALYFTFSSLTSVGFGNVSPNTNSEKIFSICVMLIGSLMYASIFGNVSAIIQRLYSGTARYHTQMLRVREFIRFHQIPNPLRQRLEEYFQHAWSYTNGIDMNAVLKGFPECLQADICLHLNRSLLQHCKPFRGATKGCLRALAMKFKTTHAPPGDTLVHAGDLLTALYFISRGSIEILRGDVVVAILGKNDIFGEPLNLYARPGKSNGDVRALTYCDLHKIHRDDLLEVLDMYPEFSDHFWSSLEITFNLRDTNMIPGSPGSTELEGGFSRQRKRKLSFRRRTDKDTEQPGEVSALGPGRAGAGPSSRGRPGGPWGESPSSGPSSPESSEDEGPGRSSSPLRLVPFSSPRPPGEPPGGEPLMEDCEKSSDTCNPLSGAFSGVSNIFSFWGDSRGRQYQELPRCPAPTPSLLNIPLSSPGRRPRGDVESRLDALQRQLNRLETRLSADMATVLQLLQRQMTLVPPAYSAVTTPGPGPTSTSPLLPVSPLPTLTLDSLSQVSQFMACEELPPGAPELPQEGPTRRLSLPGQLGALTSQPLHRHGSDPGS

SMILES | hERG current change (%, negative = inhibition) at 1uM
CCCCCCCCOC(=O)CCc1c(C)[nH]c(=S)[nH]c1=O | 8.34%
CC(C)(C)OC(=O)N1Cc2cc3ccccc3nc2C1CO (stereo not shown) | 9.55%
O=C(Nc1ccccc1Oc1ccsc1C(=O)O)c1ccccc1F | 13.3%
CN(C(=O)COC(=O)/C=C/c1ccc(C(F)(F)F)cc1)C1CCS(=O)(=O)C1 (stereo not shown) | 5.59%
CC(C)CN(C(=O)CSc1nncs1)c1c(N)n(CC(C)C)c(=O)[nH]c1=O | 12.4%
COc1ccc2[nH]c(=O)c(CN(C(C)=O)c3ccc(C)cc3C)cc2c1 | 11.8%
O=C(O)CCCn1cc(NC(=O)COc2ccc(F)cc2F)cn1 | 23.6%
O=[N+]([O-])c1ccc(N2CCCCC2)cc1NCCOc1ccccc1 | 7.4%
C=CCSc1nnc(N2C(=O)C(O)=C(C(=O)c3ccco3)C2c2ccc(F)cc2)s1 (stereo not shown) | 9.13%
N#Cc1nc(COc2ccc(-c3ccccc3)cc2)oc1NCCCN1CCOCC1 | 0.683%
O=C(COC(=O)C1c2ccccc2Oc2ccccc21)NC1CCS(=O)(=O)C1 (stereo not shown) | 12.9%
CCCCC(=O)Nc1ccc(C(=O)OC2CCCCC2)cc1 | 11.8%
COc1ccc(OC)c(CC(=O)N2CCc3cc(OC)c(OC)cc3C2)c1 | 10.6%
COC(=O)c1ccc([C@@H]2C[C@H]3CN(Cc4cccnc4)C(=O)[C@]34CCCN24)cc1 | 14.3%
C/C(=N/N=C(\C)c1ccccc1O)c1ccccc1O | 29.3%
CCOc1cc(-c2cc(-c3ccc(N)cc3)nc(N)c2C#N)ccc1O | 9.57%
Cc1nc(SC(C)C(=O)NC2CCCC2)c2ccccc2n1 (stereo not shown) | 12.4%
Cc1c(NC(=O)C2(c3ccccc3)CCOCC2)c(=O)n(-c2ccccc2)n1C | 3.79%
Cc1c(C(=O)N(C)CCC#N)oc2ccc(S(=O)(=O)N3CCOCC3)cc12 | 18.9%
CC(NC(=O)c1ccc(NS(C)(=O)=O)cc1)c1ccccc1 (stereo not shown) | -7.06%
Cc1noc(C)c1S(=O)(=O)N1CCCC1C(=O)O (stereo not shown) | 15%
COC(=O)c1ccccc1NC1=C/C(=N\S(=O)(=O)c2cccs2)c2ccccc2C1=O | -3.55%

SMILES | hERG current change (%, negative = inhibition) at 1uM
Cc1cc([N+](=O)[O-])nn1CC(=O)Nc1cc(F)ccc1F | -4.5%
CCCOC(=O)NC1C(NC(=O)OCCC)N(C)C(=O)N1C (stereo not shown) | 11.4%
CC(C)c1csc(CN2CCC(CO)(Cc3cccc(F)c3)CC2)n1 | -0.252%
O=C(O)C1CCN(C(=O)CCN2C(=O)S/C(=C\c3ccccc3)C2=O)CC1 | 30.9%
CCOC(=O)C1=C(C)NC(C)=C(C(=O)OCC)C1c1cn(-c2ccccc2)nc1-c1ccco1 | 1.55%
CCCCC(CC)CNCC(O)c1ccccc1 (stereo not shown) | 9.48%
CCN(CC(=O)Nc1c(F)cccc1F)C(=O)c1cc(S(=O)(=O)N2CCOCC2)ccc1N1CCCC1 | 6.27%
O=C(NCCCn1ccnc1)C(=O)NCc1ccc(Cl)cc1 | -11.7%
CCC(Sc1nc(C)cc(=O)[nH]1)C(=O)Nc1nnc(C)s1 (stereo not shown) | 14.7%
CN(Cc1c(C(=O)N2CCCCCCC2)nc2ccc(Cl)cn12)C1CCOC1 (stereo not shown) | 17.6%
Cc1ccc(OCCn2cnc3cc([N+](=O)[O-])ccc3c2=O)cc1 | 5.65%
Cc1cc(C(=O)CN2CC(C)OC(C)C2)c(C)n1-c1ccccc1 (stereo not shown) | 11.6%
O=C(NCC1CCCO1)c1cc(-c2ccncc2)nc2ccc(S(=O)(=O)N3CCOCC3)cc12 (stereo not shown) | -16.4%
CCOC(=O)[C@H]1[C@H]2COc3ccccc3[C@@H]2N2C(=O)c3cc(OC)c(OC)cc3NC(=O)[C@@]12C | 5.31%
COC(=O)c1ccc(S(=O)(=O)NCc2ccc(S(N)(=O)=O)cc2)n1C | 14.3%
Cc1cccc(C)c1NC(=O)C1c2ccccc2Oc2ccccc21 | 11.8%
COc1ccc(NC(=O)CSc2nc3ccccc3c(=O)n2CCC(=O)N2CCCCC2)cc1 | -16.5%
CN=C(Nc1cccnc1)c1cccc(C(F)(F)F)c1 | 16.7%
CC(C)(C)C1CCC(C(=O)Nc2ccc(N3CCOCC3)cc2N2CCOCC2)CC1 (stereo not shown) | 0.486%
COc1ccc(-c2noc(N3CCC(C(=O)N(C)c4ccccc4C)CC3)n2)cc1 | -3.76%
CCCCNC(=O)/C(=C\c1ccc([N+](=O)[O-])o1)NC(=O)c1ccccc1 | -6.47%
